From PubChem BioAssay AID1345083 (National Center for Advancing Translational Sciences (NCATS), 2018)
About 6,200 (6.6%) of roughly 94,000 compounds were called active. Inconclusive results, whose numbers are uncertain, are shown with a selection of clear calls. Calls follow the shape of the dose curve; as a rule, active = well fitted inhibition curve with a large enough effect; inconclusive = small, poorly fitted or top-dose-only effect; inactive = flat fitted curve, though single readings scatter. A potency beside an inconclusive call is a rough fit, not a confirmed value.
% is scaled to controls: 0 for no effect and ±100 for the full control effect; potency is read from the fitted curve at half-maximal effect; tags tell the direction and shape of the fitted curve.

Experiment: Cytotoxic Profiling in HEK 293 Cell Line of Diverse Libraries Using Quantitative High-Throughput Screening; also: nearly all actives have a fitted effect of over 60% in size
Conditions: HEK 293 viability, ATP luminescence (CellTiter-Glo), 48-72 h; activity change, negative = cytotoxicity: at 115 µM (top of the series) unless noted; series mostly up to 115 µM
In short: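 Pintool-delivered compounds were incubated with HEK 293 cells (250 cells/well) at 37 degree Celsius for 48 or 72 hr. ATP-dependent luminescence (CellTiter-Glo) then reported remaining viable cells.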
In the case of `Cc1ccc(-c2cc3c(=O)n(CCNC(=O)c4ccc(F)cc4)ccn3n2)c(C)c1`, the Potency is reported as inconclusive: 8.91 µM [inhibitor, full curve, poor fit].
With `CN1CCN(C(=O)CC[C@H]2CNC(=O)[C@@H]3[C@@H](CCN3Cc3ccc(C(=O)O)cc3)N2C)CC1` the “activity change, negative = cytotoxicity” value was inactive: -6.8%.
In the case of `Cn1nccc1C(=O)N1CCC(Oc2ccccc2-c2nc(-c3ccccc3)no2)C1` (stereo unspecified), the Potency is reported as inconclusive: 11.2 µM [inhibitor, full curve, poor fit].
With `COc1ccc(-c2cc(N3CCCN(C(=O)c4ccccc4OC)CC3)n[nH]2)cc1` the “activity change, negative = cytotoxicity” value was inactive: -25.8%.
In the case of `O=c1[nH]c(C2CCCN([S+](=O)([O-])c3cccc(C(F)(F)F)c3)C2)nn1-c1ccccn1` (stereo unspecified), the Potency is reported as inconclusive: 79.4 µM [inhibitor, partial curve].
In the case of `CNc1cc(C)nc(N2CCN(Cc3cccc(OC)c3)C(CCO)C2)n1` (stereo unspecified), the Potency is reported as inconclusive: 79.4 µM [inhibitor, single point].
For `CC(C)Oc1cccc(-c2nnc(CCC(=O)N3CCC(Cc4ccccc4)CC3)c(=O)[nH]2)c1`, the Potency was inconclusive: 89.1 µM [inhibitor, partial curve, poor fit].
For `CC(C)CN1C(=O)CO[C@H](c2ccc(NC(=O)c3ccc4c(c3)OCO4)cc2)[C@H]1CO`, the Potency was inconclusive: 89.1 µM [inhibitor, partial curve, poor fit].
For `CSc1cccc(NC(=O)Cn2ccn3nc(-c4ccc(F)cc4)c(CO)c3c2=O)c1`, the Potency was inconclusive: 50.1 µM [inhibitor, partial curve, poor fit].
In the case of `CN1CC2(CCN(C(=O)Nc3ccc4c(c3)OCCO4)CC2)CC1C(=O)N1CCOCC1` (stereo unspecified), the “activity change, negative = cytotoxicity” value is reported as inactive: -2.27%.
In the case of `CC1=C[C@@H](CNC(=O)CC2(CC(=O)O)CCCC2)[C@H](C(C)C)C[C@H]1Cc1nc2ccccc2n1C`, the Potency is reported as inconclusive: 89.1 µM [inhibitor, partial curve, poor fit].
In the case of `CCc1noc(-c2cn(C3CCN(C(=O)c4cccc(Br)c4)C3)nn2)n1` (stereo unspecified), the Potency is reported as inconclusive: 56.2 µM [inhibitor, partial curve, poor fit].
In the case of `COc1ccc(CN2CCc3nn(CC(C)C)c(=O)n3CC2)cc1Cn1ccnc1`, the “activity change, negative = cytotoxicity” value is reported as inactive: 0.875%.
In the case of `Cc1noc(-c2ccc3c(c2)OCO3)c1C(=O)NCCCCc1ccccc1`, the Potency is reported as inconclusive: 50.1 µM [inhibitor, partial curve, poor fit].
For `CCCn1ncc(CN2CCC(Cc3cccc(C(F)(F)F)c3)(C(=O)OCC)CC2)c1C`, the Potency was inconclusive: 22.4 µM [inhibitor, full curve, poor fit].
In the case of `O=C(CCn1ccn2nc3c(c2c1=O)CCCC3)Nc1ccc(Oc2ccccc2)cc1`, the Potency is reported as inconclusive: 20 µM [inhibitor, full curve].
In the case of `CC(C)c1ccc(CN2CCCC(O)(CNCCN3CCNCC3)C2=O)cc1` (stereo unspecified), the Potency is reported as inconclusive: 89.1 µM [inhibitor, partial curve, poor fit].
For `CC1(C)[C@H]2CC[C@@H](CNC(=O)c3cncc(Br)c3)[C@@H]1C2`, the Potency was active: 79.4 µM.
With `CC(=O)N1Cc2ccccc2CC2(CCCCN2Cc2ccccn2)C1` (stereo unspecified) the “activity change, negative = cytotoxicity” value was inactive: -7.71%.
With `O=S(=O)(c1ccccc1)N1CCCC(c2nc(CCOCC3CCCC3)no2)C1` (stereo unspecified) the Potency was inconclusive: 50.1 µM [inhibitor, partial curve, poor fit].
In the case of `CCN1C(=O)CCN(S(=O)(=O)c2cccc3cccnc23)CC12CCOCC2`, the “activity change, negative = cytotoxicity” value is reported as inactive: 0.938%.
With `COc1ccc(C(C)NC(=O)COc2ccc(NC(=O)C3CC3)cn2)cc1` (stereo unspecified) the “activity change, negative = cytotoxicity” value was inactive: 14.9%.
With `COc1cccc(-c2n[nH]c3c2CC(=O)N(Cc2ccccc2F)C3)c1OC` the Potency was inconclusive: 112 µM [inhibitor, partial curve, poor fit].
In the case of `Cc1noc(C)c1-c1cc2cc(CO)oc2c(NC2CCN(C)CC2)n1`, the Potency is reported as inconclusive: 63.1 µM [inhibitor, partial curve, poor fit].
In the case of `CC(C)CCN1CCCC2(COc3ccccc3C(=O)N2)C1` (stereo unspecified), the Potency is reported as inconclusive: 112 µM [inhibitor, partial curve, poor fit].
With `COCCCNC(=O)c1ccccc1-c1ccc(OC)nn1` the “activity change, negative = cytotoxicity” value was inactive: 0.219% [at 172 µM].
In the case of `COc1ccc(NC(=O)c2ccc3c(c2)OCCN(C2CCC2)C3)c(F)c1`, the Potency is reported as inconclusive: 10 µM [inhibitor, full curve].
In the case of `O=C(Cc1ccccc1Cl)N1CCC[C@H]1c1nc(-c2ccc(F)cc2)no1`, the Potency is reported as inconclusive: 56.2 µM [inhibitor, partial curve, poor fit].
For `Cc1occc1C(=O)N1CCC(N2CCCC(C(=O)NCc3ccccn3)C2)CC1` (stereo unspecified), the “activity change, negative = cytotoxicity” value was inactive: 4.36%.
With `N#Cc1cccc(S(=O)(=O)N2CC(C(=O)NC3CCCCC3)C3(CCOCC3)C2)c1` (stereo unspecified) the “activity change, negative = cytotoxicity” value was inactive: 1.43%.
In the case of `CC(C(=O)N1CC(n2cc(C(=O)NCC3CC3)nn2)C1)c1ccccc1` (stereo unspecified), the “activity change, negative = cytotoxicity” value is reported as inactive: 3.8%.
For `CCC(CC)NC(=O)CCC1CCN(C(=O)c2ccccc2Cl)CC1`, the Potency was inconclusive: 79.4 µM [inhibitor, single point].
With `COc1ccc(Cl)cc1C(=O)Nc1cccc(-c2nnc3n2CCCC3)c1` the Potency was inconclusive: 100 µM [inhibitor, single point].
With `Cc1ccc(C)c(N2CCN(C(=O)CCc3conc3-c3ccccc3)CC2)c1` the Potency was inconclusive: 50.1 µM [inhibitor, partial curve, poor fit].
In the case of `CCCCC1C=CCN1C(=O)c1cc(COc2ccc(F)cc2F)[nH]n1` (stereo unspecified), the Potency is reported as inconclusive: 50.1 µM [inhibitor, partial curve, poor fit].
With `O=C(c1cccc(F)c1)N1CCC2(CC1)N=C(c1ccc(Br)cc1)NO2` the Potency was inconclusive: 50.1 µM [inhibitor, partial curve, poor fit].
With `COCCN1CC(CO)C2(CCN(C(=O)c3ccccc3)CC2)C1` (stereo unspecified) the Potency was inconclusive: 89.1 µM [inhibitor, single point].
In the case of `CCn1nccc1C(=O)N1CCCC(c2noc(COc3ccccc3)n2)C1` (stereo unspecified), the Potency is reported as inconclusive: 79.4 µM [inhibitor, partial curve].
With `COc1cccc(-c2ccc(C(=O)NCCNC(C)=O)cc2)c1` the “activity change, negative = cytotoxicity” value was inactive: -23.7% [at 172 µM].
For `OCc1cccc(-c2ccc3ncc(Nc4ccc(OCCN5CCCC5)cc4)n3n2)c1`, the Potency was active: 100 µM.
For `COc1ccc(CNC(=O)[C@@H](C)C2CC[C@@]3(C)CC[C@H](NC(=O)c4cncnc4)[C@@H](C)[C@@H]3[C@H]2O)cc1OC` (stereo partly specified), the Potency was inconclusive: 79.4 µM [inhibitor, partial curve, poor fit].
